Results taken from PubChem BioAssay AID686979 (National Center for Advancing Translational Sciences (NCATS), 2013).
Several values for one entry are separate records, joined by “and”; a condition that tells them apart may be missing. Identical values can stand only once. Out of some 420,000 compounds screened, about 50,000 (12%) were called active. This list was built around the results that the source calls inconclusive (neither active nor inactive); the mix of calls is not that of the screen. The call rests on the fitted dose curve; in most records, active means well fitted inhibition curve with a large enough effect; inconclusive means small, poorly fitted or top-dose-only effect; inactive means flat fitted curve, though single readings scatter. Where the call is inconclusive, the potency comes from a doubtful curve fit.

Test: qHTS for Inhibitors of human tyrosyl-DNA phosphodiesterase 1 (TDP1): qHTS in cells in presence of CPT; further: nearly all actives have a fitted effect of over 55% in size
Details: chicken DT40 Tdp1-/-;hTDP1 cells + 20 nM CPT, ATP luminescence, 48 h; activity change, negative = growth inhibition: at 46.2 µM (top of the series)
Summary of the method: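 Cell growth measured by CellTiter-Glo luminescence after a minimum 48 h, 37 C compound exposure with 20 nM CPT in Tdp1-knockout DT40 cells stably expressing hTDP1, seeded 400/well; qHTS titration format.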
On the % scale 0 is the no-effect control and ±100 the full control effect; potency means the concentration at half of the fitted maximal effect; tags describe the fitted curve by direction and shape.

Compound | activity change, negative = growth inhibition | Potency
CC(C)=C(NC(=O)c1ccccc1Cl)C(=O)NCCc1nc2ccccc2[nH]1 | inactive: 9.56% | –
COc1ccc(-n2c(=O)c3c4c(sc3n(Cc3cc(=O)n5c(C)cccc5n3)c2=O)CCC4)c(OC)c1 | – | inconclusive: 23.1 µM [inhibitor, single point]
Cc1cccc(NC(=S)N2CCC(c3nc4ccccc4o3)CC2)c1C | inactive: -24.9% | –
C=CCn1c(SCC(=O)NCc2ccc3c(c2)OCO3)nc2scc(-c3ccc(F)cc3)c2c1=O | – | inconclusive: 29.1 µM [inhibitor, single point]
CCc1nnc(N2C(=O)c3ccc(Oc4ccc([N+](=O)[O-])cc4)cc3C2=O)s1 | – | inconclusive: 29.1 µM [inhibitor, partial curve, poor fit]
COc1ccc(C2CC(=O)N3CN(C4CCCCC4)CSC3=C2C#N)cc1 (stereo not drawn) | – | inconclusive: 29.1 µM [inhibitor, single point]
O=C(CNc1cc(S(=O)(=O)N2CCOCC2)ccc1N1CCOCC1)Nc1cccc(C(F)(F)F)c1 | – | inconclusive: 5.8 µM [inhibitor, partial curve]
Cc1cc(C)n2nc(C(=O)OCC(=O)NC3CCCCC3)nc2n1 | inactive: -1.64% | –
Cc1ccc(C)c(S(=O)(=O)N/N=C/c2ccc(N3CCOCC3)cc2)c1 | – | inconclusive: 18.4 µM [inhibitor, single point]
Cn1ccc(C(=O)NCC2CCC3(CCN(Cc4ccc(F)cc4F)CC3)O2)n1 (stereo not drawn) | inactive: -12.4% | –
CCc1ccc(CNC(=O)CSCc2cnn(-c3ccccc3)c2-n2cccc2)cc1 | – | inconclusive: 25.9 µM [inhibitor, single point]
COc1ccc(CCN(Cc2cc3cccc(C)c3[nH]c2=O)C(=O)NC2CCCCC2)cc1OC | – | inconclusive: 18.4 µM [inhibitor, single point]
O=C1C2C3c4ccccc4C(c4ccccc43)C2C(=O)N1/N=C/c1cccc(O)c1 (stereo not drawn) | – | active: 20.6 µM
Cc1ccc(Cn2c(=O)c3ccccc3n3c(-c4ccccc4)nnc23)cc1 | – | inconclusive: 2.06 µM [inhibitor, partial curve]
COc1ccc(OC)c(S(=O)(=O)Nc2ccc3c(c2)OCCO3)c1 | – | inconclusive: 18.4 µM [inhibitor, single point]
N#Cc1ccc(NC(=O)NN2CCCCCC2)cc1 | – | inconclusive: 23.1 µM [inhibitor, single point]
COc1ccc2c(c1)C(=O)N(c1ccc(C)cc1C)C(=O)C2 | – | active: 13 µM
COc1ccc(NC(=O)CCCS(=O)(=O)c2nc(-c3ccc(OC)c(OC)c3)cc(C(F)(F)F)n2)cc1OC | – | active: 1.64 µM
O=C(OC(C(=O)Nc1ccc([N+](=O)[O-])cc1Br)c1ccccc1)c1ccccc1 (stereo not drawn) | – | inconclusive: 29.1 µM [inhibitor, single point]
O=C1N(Cc2ccccc2)CC2(Br)COCOC12O (stereo not drawn) | – | active: 2.31 µM
CCCC(=O)NC(c1ccc(N(C)C)cc1)c1ccc2cccnc2c1O (stereo not drawn) | – | active: 0.651 µM
CCOC(=O)N1CCN(S(=O)(=O)c2cc(Cl)ccc2Cl)CC1 | – | inconclusive: 29.1 µM [inhibitor, single point]
Oc1ccc(Cl)cc1CNCc1ccc(F)cc1 | – | inconclusive: 23.1 µM [inhibitor, single point]

Compound | activity change, negative = growth inhibition | Potency
COc1ccc(N(C(=O)c2snc(C(N)=O)c2N)C(C(=O)NC2CCCC2)c2cccs2)c(OC)c1 (stereo not drawn) | – | inconclusive: 18.4 µM [inhibitor, single point]
O=C(NCCNc1ccc([N+](=O)[O-])cc1C(F)(F)F)c1ccc(F)cc1 | – | inconclusive: 29.1 µM [inhibitor, single point]
Cc1ccc(NC(=S)NCC23C=CC(O2)C2C(=O)N(c4ccc(C)cc4)C(=O)C23)cc1 (stereo not drawn) | – | active: 18.4 µM
Cc1nc(N2CCC(C)CC2)c(C#N)c(C)c1[N+](=O)[O-] | inactive: -0.958% | –
O=C(Nc1ccc2c(c1)N(C1CCCC1)C(=O)c1ccccc1S2)c1ccccc1 | – | inconclusive: 29.1 µM [inhibitor, single point]
O=C(Cc1c(O)c2ccccc2[nH]c1=O)OC1CCCCC1 | inactive: -0.183% | –
OCC[C@@H]1C[C@@H](O)[C@H](O)[C@]2(Cc3ccccc3CO2)O1 | inactive: 6.97% | –
Cc1ccc(C2=NN(CC(=O)O)C(=O)CC2)cc1 | inactive: 7.3% | –
Cc1cc(C)c(C#N)c(SCC(=O)N(CC(C)C)C2CCS(=O)(=O)C2)n1 (stereo not drawn) | inactive: 2.6% | –
Cc1cc(C)n(-c2nc3ccccc3nc2N2CCCC2)n1 | inactive: -15.8% | –
O=C(NC1CC1)c1ccc(CSCc2ccc(Cl)cc2)o1 | inconclusive: -31.1% [inhibitor] | –
Nc1nnn(CC(=O)N/N=C/C=C/c2ccccc2)n1 | inactive: 14.5% | –
Cc1cccc(-c2noc(CN(C(C)C)S(=O)(=O)c3ccc(F)cc3)n2)c1 | – | inconclusive: 16.4 µM [inhibitor, single point]
COCCNC(=O)C1Nc2ccc(OC(F)(F)F)cc2C2C=CCC12 (stereo not drawn) | – | inconclusive: 16.4 µM [inhibitor, partial curve, poor fit]
CSc1cccc(NC(=O)CN2C(=O)c3ccccc3S2(=O)=O)c1 | inactive: -11.5% | –
COc1cccc(-c2nc(CS(=O)CC(=O)N3CCN(c4cccc(C(F)(F)F)c4)CC3)c(C)o2)c1 (stereo not drawn) | – | active: 13 µM
COc1ccc(C)cc1NC(=O)N1CCCc2ccccc21 | – | inconclusive: 13 µM [inhibitor, partial curve]
N/C(=N\OC(=O)c1ccc(Cl)c([N+](=O)[O-])c1)c1ccccc1 | inactive: -11.6% | –
COc1cccc2c1Oc1cc([N+](=O)[O-])cc(N(C)C(C)=O)c1C=C2 | – | inconclusive: 20.6 µM [inhibitor, partial curve]
Cc1ccc(SCC(=O)Nc2ccc3oc(-c4cccc(C)c4)nc3c2)cc1 | – | inconclusive: 20.6 µM [inhibitor, partial curve]
COc1ccc(CCNC(=O)C(=O)NCC(c2cccs2)S(=O)(=O)c2ccccc2)cc1 (stereo not drawn) | – | inconclusive: 7.31 µM [inhibitor, partial curve]
COc1cccc(C(=O)N2CCC(C(=O)NCc3ccc(C)cc3)CC2)c1 | inactive: -1.52% | –
O=C(Cn1cnc2c(cnn2-c2ccccc2)c1=O)N1CCCc2ccccc21 | – | inconclusive: 10.3 µM [inhibitor, partial curve]

Compound | activity change, negative = growth inhibition | Potency
Cc1ccc(C)c(C(=O)C(C)Sc2nc3nn(-c4ccccc4)c(=O)c-3c3n2CCCCC3)c1 (stereo not drawn) | – | inconclusive: 25.9 µM [inhibitor, single point]
COc1cccc2c1CCC1CC(=O)CC[C@@]21C (stereo partly drawn) | inactive: -18.5% | –
CCc1ccccc1-n1nnnc1SCC(=O)Nc1ccc(N2CCN(C)CC2)cc1 | – | inconclusive: 25.9 µM [inhibitor, single point]
Cc1onc(-c2ccccc2Cl)c1C(=O)N1CCCc2ccccc21 | – | inconclusive: 25.9 µM [inhibitor, single point]
Cc1nn2c(N3CCN(CCO)CC3)c3c(nc2c1-c1ccccc1)CCCC3 | – | inconclusive: 29.1 µM [inhibitor, single point]
CCOc1ccc2cc(S(=O)(=O)N3CCCCC3)ccc2c1 | – | active: 29.1 µM
CCc1nc(SCC(=O)NCCc2ccccc2)c2oc3ccccc3c2n1 | – | active: 20.6 µM
CC(=O)Nc1ccc2c(CN3C(=O)NC(C)(c4ccc(C)cc4)C3=O)cc(=O)oc2c1 (stereo not drawn) | – | inconclusive: 20.6 µM [inhibitor, single point]
O=C(NCCN1C(=O)S/C(=C\c2ccccc2)C1=O)C1CCN(S(=O)(=O)c2cccs2)CC1 | – | active: 13 µM
COc1ccc(OC)c(CNS(=O)(=O)c2ccc(-c3cc(C(F)(F)F)on3)s2)c1 | – | active: 8.2 µM
CC(=O)N1C[C@H]2CON(C)[C@H]2C[C@H]1c1ccc(-c2ccc(C#N)cc2)cc1 | – | inconclusive: 14.6 µM [inhibitor, single point]
CC(C)[C@H]1COCCS(=O)(=O)N1Cc1ccc(Cl)cc1 | – | inconclusive: 35.5 µM [inhibitor, single point] and inconclusive: 29.1 µM [inhibitor, single point]
CC[C@@]12C(=O)N(c3cccc(Br)c3)C(=O)N1[C@H](c1ccc(Cl)cc1)[C@@H]1C(=O)N(C3CCCCC3)C(=O)[C@@H]12 | – | inconclusive: 29.1 µM [inhibitor, single point]
Cc1cc(=O)[nH]c2ccc(S(=O)(=O)NC3CCCCC3)cc12 | – | inconclusive: 10.3 µM [inhibitor, partial curve]
O=C(NCCC1=CCCCC1)c1ccc2c(c1)N(Cc1ccccc1)C(=O)c1ccccc1S2(=O)=O | – | inconclusive: 29.1 µM [inhibitor, single point]
CCOC(=O)c1noc2ncn(CC(=O)O)c(=O)c12 | – | inconclusive: 11.6 µM [inhibitor, single point]
CCC(CO)NCc1ccc(-c2ccccc2)cc1 (stereo not drawn) | – | inconclusive: 25.9 µM [inhibitor, single point]
COc1ccc(NC(=O)C(c2cccc3ccccc23)n2c(=O)c(-c3ccco3)nc3ccccc32)cc1 (stereo not drawn) | – | inconclusive: 8.2 µM [inhibitor, partial curve]
O=C(c1ccc(NS(=O)(=O)c2cccc(F)c2)cc1)N1CCCCC1 | – | inconclusive: 23.1 µM [inhibitor, single point]
Cc1ccc(N2CCN(C(=O)c3nn(C)c4c3CSc3ccccc3-4)CC2C)cc1 (stereo not drawn) | – | active: 23.1 µM
COc1ccc(C(=O)COC(=O)CCCC(=O)NC2CCCCC2)cc1 | inactive: -28.4% | –
CCN(Cc1ccncc1)C(=O)c1ccc(C)c(S(=O)(=O)N2CCCCC2)c1 | – | inconclusive: 11.6 µM [inhibitor, partial curve]
